# The whole screen tested about 370,000 compounds, of which about 150 (0.041%) were called active. Inconclusive results, whose numbers are uncertain, are shown with a selection of clear calls. The call rests on the fitted dose curve; in most records, active means well fitted inhibition curve with a large enough effect; inconclusive means small, poorly fitted or top-dose-only effect; inactive means flat fitted curve, though single readings scatter. Potencies of inconclusive entries are left out as doubtful fits.
# Target: Beta-lactamase (Escherichia coli (strain K12)) (UniProt P00811)
# Experiment: qHTS Inhibitors of AmpC Beta-Lactamase (assay with detergent); further: nearly all actives have a fitted effect of over 25% in size;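 on activity change, negative = inhibition: 0% = no-compound wells and -100% = no-enzyme wells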
# Conditions: AmpC hydrolysis of nitrocefin, absorbance 480 nm, 0.01% Triton; activity change, negative = inhibition: at 114 µM (top of the series)
# Procedure, shortened: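 20 mM phosphate pH 7.0 + 0.01% (detergent screen) or 0.0001% Triton X-100; 5.3 nM AmpC reagent; cpd preinc 15 min RT; nitrocefin (800 uM stock) to start; A480 q20 s × 4 min; Activity was normalised to no-enzyme and no-compound control wells.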
# Potency means the concentration at half of the fitted maximal effect; tags describe the fitted curve by direction and shape.
# Chain of UniProt P00811 (P00811 whole entry, looked up): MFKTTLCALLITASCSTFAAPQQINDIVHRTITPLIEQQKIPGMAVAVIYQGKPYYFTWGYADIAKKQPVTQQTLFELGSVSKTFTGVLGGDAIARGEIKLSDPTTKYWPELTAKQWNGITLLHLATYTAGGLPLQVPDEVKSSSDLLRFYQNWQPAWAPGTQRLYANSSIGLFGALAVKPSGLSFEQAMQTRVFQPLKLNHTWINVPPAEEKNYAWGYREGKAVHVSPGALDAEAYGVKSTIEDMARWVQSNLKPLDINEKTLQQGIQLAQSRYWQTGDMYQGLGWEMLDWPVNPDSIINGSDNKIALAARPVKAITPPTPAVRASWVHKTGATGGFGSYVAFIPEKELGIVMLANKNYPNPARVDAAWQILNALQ
SMILES,Potency,"activity change, negative = inhibition"
CCSc1nc(O)c(C2OC(=O)c3c2ccc(OC)c3OC)c(=O)n1-c1ccccc1 (stereo unspecified),"inconclusive [inhibitor, full curve, poor fit]",
Cc1ccc(NC(=O)CSc2nnnn2C2CCCC2)cc1S(=O)(=O)N1CCOCC1,"inconclusive [inhibitor, full curve, poor fit]",
COc1cc(/C=N/NC(=O)CC23CC4CC(CC(C4)C2)C3)cc(Br)c1OCC(=O)N(C)C,,inactive: 2.03%
OCCCNc1nc(-c2ccc(Cl)cc2)nnc1-c1ccc(Br)cc1,"inconclusive [inhibitor, partial curve, poor fit]",
CCCN1CCN(c2nnc(-n3cccc3C(=O)Nc3cc(Cl)ccc3C)s2)CC1,,inactive: 4.29%
O=[N+]([O-])c1ccc(/C=N/n2c(-c3ccccc3)n[nH]c2=S)cc1,"inconclusive [inhibitor, full curve, poor fit]",
Cc1sc2ncnc(N3CCC(C(=O)Nc4nc(-c5ccc(F)cc5)cs4)CC3)c2c1C,"inconclusive [inhibitor, full curve, poor fit]",
COC(=O)C1=C(C)NC(C)=C(C(=O)OC)C1c1ccc(NC(C)=O)cc1,"inconclusive [inhibitor, full curve, poor fit]",
CCC(=O)N1c2ccccc2CC1C(=O)NCCc1cc(OC)c(OC)c(OC)c1 (stereo unspecified),"inconclusive [inhibitor, full curve, poor fit]",
Cc1nn(C)cc1NC(=O)c1nn(C)cc1[N+](=O)[O-],"inconclusive [inhibitor, full curve, poor fit]",
C[C@H]1COC2=C1C(=O)C(=O)c1c2ccc2c1CCCC2(C)C,,inactive: 0.922%
O=C(c1ccc(S(=O)(=O)N2CCCCCC2)cc1)N1CCCC(C(F)(F)F)C1 (stereo unspecified),"inconclusive [inhibitor, full curve]",
O=C(O)C1=NN(c2c(F)c(F)cc(F)c2F)C(=O)CC1,"inconclusive [inhibitor, single point]",
CCN1CCN(CCCOc2ccc(-c3ccccc3)cc2)CC1,"inconclusive [inhibitor, partial curve]",
O=C(N/N=C/C=C/c1ccccc1[N+](=O)[O-])c1cc(-c2cccnc2)nc2ccccc12,"inconclusive [inhibitor, full curve]",
COc1ccccc1NC(=O)COc1ccc(Br)cc1CNCCCN1CCOCC1,"inconclusive [inhibitor, full curve, poor fit]",
N=c1scc(-c2ccccc2)n1/N=C/c1ccco1,"inconclusive [inhibitor, single point]",
CCOC(=O)c1ccc(N2C(=O)c3[nH]nc(-c4ccc(C)cc4)c3C2c2cccs2)cc1 (stereo unspecified),,inactive: -4.53%
O=C(Nc1ccccc1)O[C@@H]1C[C@H]2CCC(=O)N3CC[C@@H](C1)[C@@H]23,"inconclusive [inhibitor, full curve]",
Cc1ccc(-c2[nH]ncc2CN2CCN(C(=O)c3cccs3)CC2)cc1C,"inconclusive [inhibitor, full curve]",
CN(C)CCNC(=O)CNC(=S)N(Cc1ccccc1)Cc1ccccc1F,"inconclusive [inhibitor, partial curve, poor fit]",

SMILES,Potency,"activity change, negative = inhibition"
Cc1nn(-c2ccccc2)c2nc(N)c(C#N)c(-c3ccc(C(C)(C)C)cc3)c12,,inactive: -1.75%
COc1cccc(OCc2cc(C(=O)N(C)Cc3nccn3C)no2)c1,"inconclusive [inhibitor, single point]",
CCN(Cc1ccccc1)C(=O)c1c[nH]c2ccc(S(=O)(=O)N(C)CCC#N)cc2c1=O,"inconclusive [inhibitor, partial curve, poor fit]",
Nc1ccn(Cc2cccc(F)c2)n1,,inactive: 7.7%
COc1cc(OC)cc(C(C)=O)c1,"inconclusive [inhibitor, partial curve]",
CCn1c(CCn2c3ccccc3c3ccccc32)n[nH]c1=S,"inconclusive [inhibitor, partial curve]",
CCc1nnc(NC(=O)CCC(=O)N2CCN(C3c4ccccc4-c4ccccc43)CC2)s1,"inconclusive [inhibitor, full curve, poor fit]",
COc1cc2[nH]c(=O)n(CCCC(=O)N3CC=C(c4ccccc4)CC3)c(=O)c2cc1OC,"inconclusive [inhibitor, single point]",
COc1ccc2c(c1)C=C(CN1CCN(Cc3ccccc3C)C(CCO)C1)CO2 (stereo unspecified),"inconclusive [inhibitor, partial curve]",
CCOc1ccc2[nH]c(=O)c(C(c3nnnn3Cc3ccco3)N3CCCC(C)C3)cc2c1 (stereo unspecified),"inconclusive [inhibitor, single point]",
CCn1c(SCC(=O)O)nnc1C1CCCCC1,"inconclusive [inhibitor, full curve, poor fit]",
CCCCC1(C)Nc2ccccc2-c2nc3ccccc3n21 (stereo unspecified),,inactive: -10.3%
O=C(CN(Cc1cccs1)C(=O)CCC(=O)Nc1nccs1)NCc1ccccc1,"inconclusive [inhibitor, partial curve, poor fit]",
CCN(CC(=O)Nc1cc(Cl)ccc1C)C(=O)c1ccc2c(c1)NC(=O)C(C)S2 (stereo unspecified),"inconclusive [inhibitor, full curve, poor fit]",
C=CCNc1nc2c(c(=O)n(C)c(=O)n2C)n1CC,"inconclusive [inhibitor, full curve, poor fit]",
CCOC(=O)c1sc2cccc(Cl)c2c1N,"inconclusive [inhibitor, full curve, poor fit]",
CCCCOCCCNC(=O)c1ccc([N+](=O)[O-])c(C)c1,,inactive: -6.78%
O=C(Cc1ccc(F)cc1)N/N=C/c1ccc(-c2ccc(Cl)c(C(=O)O)c2)o1,,inactive: -8.03%
C[n+]1cc(-c2ccccc2)n2c1CCCCC2,"inconclusive [inhibitor, full curve]",
CCCc1nnc(NC(=O)c2ccc(S(=O)(=O)N(C)c3ccccc3OC)cc2)s1,,inactive: -3.99%

# Source: PubChem BioAssay AID485294 (National Center for Advancing Translational Sciences (NCATS), 2010)
